Reference: the supplement of paper PMC3334620
Over roughly 33,000 sequences, “E-score (-0.5 to 0.5)” has its median near -0.032; the highest 2% begin near 0.36. Some of the results follow.

These sequences were tested against T1, Sko1 (UniProt Q02100) (assay: PBM E-score (8-mer binding enrichment) (E-score (-0.5 to 0.5)); higher = stronger / more preferred TF binding; most listed sequences are background and not binding sites). Settings: protein concentration: 200 nM; construct: GST-full length.
T1 sequence: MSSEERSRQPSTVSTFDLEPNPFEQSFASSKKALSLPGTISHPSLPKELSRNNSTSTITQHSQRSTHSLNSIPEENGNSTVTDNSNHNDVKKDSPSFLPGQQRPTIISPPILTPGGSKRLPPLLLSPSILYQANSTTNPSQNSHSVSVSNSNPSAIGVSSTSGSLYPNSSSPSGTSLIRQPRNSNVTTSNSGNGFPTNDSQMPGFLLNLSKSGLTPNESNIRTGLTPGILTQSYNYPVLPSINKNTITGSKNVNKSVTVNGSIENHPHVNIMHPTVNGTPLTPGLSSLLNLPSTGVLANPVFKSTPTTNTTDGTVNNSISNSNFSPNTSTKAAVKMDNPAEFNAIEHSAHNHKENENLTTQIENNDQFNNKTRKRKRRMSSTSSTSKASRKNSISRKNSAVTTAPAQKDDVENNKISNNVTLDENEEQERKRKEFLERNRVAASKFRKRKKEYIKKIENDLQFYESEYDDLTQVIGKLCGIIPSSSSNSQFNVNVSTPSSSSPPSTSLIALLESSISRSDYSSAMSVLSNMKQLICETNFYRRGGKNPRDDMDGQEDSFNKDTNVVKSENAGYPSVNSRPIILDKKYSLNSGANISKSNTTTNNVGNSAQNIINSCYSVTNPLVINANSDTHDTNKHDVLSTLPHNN
Summary of the method: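 Universal all-10-mer Agilent arrays, double-stranded by primer extension on fresh or once-stripped slides, were probed with about 100-200 nM GST-tagged yeast transcription factors made by PURExpress. Fluorescent anti-GST detected bound protein, and masliner normalised the scans. E-scores from the Universal PBM Analysis Suite were given to each ungapped eight-base word pooled with its reverse complement.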

Sequence	PBM E-score
CCATTCAC	-0.0988
AAAACCCT	-0.0666
CCGGGGCA	-0.332
CCCATTAC	0.122
GGGCCGAC	-0.241
CCATCTAG	-0.166
CGTTTACA	0.138
GATACTGA	0.102
GCTGCTAC	-0.226
CTTGCTAA	-0.0906
ACTCGGCG	-0.126
AGTGAAGG	-0.0912
ACCAAGAT	0.0743
ACCGTATG	0.105
CCACCAAA	-0.173
GATGGGCA	-0.152
ACAGTCCA	-0.0384
TAATGCTA	0.275
CAAGTCAA	-0.0625
GGTTCCTA	-0.201
ACAAGAGG	-0.156
AGCTTGAG	-0.234
CCGCGGCA	-0.212
CAACCATG	-0.0378
GTGGCTCA	-0.0741

Sequence	PBM E-score
ATCTCCAG	-0.00718
AAAGCACC	-0.276
ATCTGTGA	-0.0628
CGTATGAG	0.267
CGCTTCCC	-0.227
AAAATCTG	0.133
TAGTAGCA	0.136
CGTAAGGA	0.327
AGAGTTCG	0.122
AGTTCCAG	-0.222
CCTCTCCC	-0.359
ATCGATGA	0.243
AGTGCCGC	-0.144
ACCTACGA	0.159
CCAGTCGC	-0.0974
CCTCAGAA	-0.198
CACTGATA	-0.0425
CAGGCCTA	0.0202
GATGGGAA	-0.214
CCCCAACA	-0.215
GCACAAAC	-0.102
CCTGAAGG	-0.23
CGCCCCGA	-0.261
AGGTTAAG	-0.209
AGATGAAA	0.0142

Sequence	PBM E-score
CTAGCGAA	-0.217
CGGTAACG	0.0517
GGCGAGCC	-0.341
CGGCCTAA	-0.256
CAGACGCA	0.055
CATCGATC	0.0238
ACATTCAT	0.133
AGCCAGGA	-0.0294
CGGTGGTC	-0.329
TCAAACCA	0.0693
CACTCTAC	0.104
ACCAGCAG	-0.148
ATCGGGCA	-0.161
TGCAACAA	0.137
GGCTCACC	-0.335
GCGGAGCC	-0.301
GTATTAGA	0.222
ATAAGATG	0.117
CATGCTAG	0.0828
ATACCACC	-0.0659
CATATGTC	0.167
CTTGCTCC	-0.2
GTCGACTA	0.221
GGTTCTAC	-0.115
CTCTATCC	-0.148

Sequence	PBM E-score
GCTCAAAA	0.0938
ACTTGGGA	-0.277
AATTCAAG	0.0365
TTATTAAA	0.221
CTCATGCA	0.0469
GGCATGCC	-0.252
AAAGACCT	-0.0134
AGATTCGA	0.0181
GATTGATA	0.203
ATTTTCTC	0.0177
AGTAGCCA	-0.124
CATGCTGC	-0.0935
CTGATAGA	-0.00597
CCCTTATA	-0.00749
AAGGAAAG	-0.188
CTCAAGTC	-0.157
AACGGGGC	-0.00476
AATATGGT	0.113
ATAGGACC	-0.363
AAACGCCA	0.12
CTTGTGAA	-0.0605
AACGTCAA	0.424
CGTAGTCC	0.0302
AAGGTGCA	-0.0402
GATTCATA	0.0517

Sequence	PBM E-score
CAAAGAGG	-0.214
CTAGGAGC	-0.252
CAATAGCC	-0.095
AATCGACT	-0.114
CCTAGCAA	-0.128
CCTCGCTC	-0.0865
TGGTTCAA	0.0525
ACGTGACT	0.324
GACACGAC	0.0945
CGACCGCA	-0.266
AAGATGAT	0.277
AATGACTA	0.0941
AGCTGTAG	-0.169
ATGTGGGG	-0.275
ACATTGGT	-0.106
GCCCCCAA	-0.188
GGTAGAAC	-0.13
GAGGTGGC	-0.225
ACTATAAG	0.0577
TGGATTAA	0.0521
CGCTGACA	0.0388
GGCTTGCA	-0.0735
CTCCCGTA	-0.148
AGCCGAAA	-0.0837
AATTTACC	0.00322

Sequence	PBM E-score
GTGCTAAC	0.0195
CCACAATC	-0.0986
ATCATATA	0.244
CTCCTATA	-0.051
GCACTTAC	0.149
TAAGGACA	0.0276
GAACTGAA	0.0186
AGTCCGGC	-0.0532
CGTGCCTC	0.136
ACGTCTGA	0.339
CAGGAAGA	-0.156
ACATAGAG	0.0283
ACGGACCA	0.03
ACAATGCT	-0.0168
CTGACACC	-0.157
CAGGGTAG	-0.161
AGTCTACG	0.085
GGTCCACC	-0.367
AGCAACAC	0.0523
GTCCAGAC	-0.278
AGCTATCA	0.0219
GAAAGAAA	0.126
GCTACTGA	0.00969
CCTGCAAA	-0.179
CAGTGACC	-0.18

Sequence	PBM E-score
GTAGGGTA	0.1
ACTCCCGA	-0.223
AACGGTAA	-0.0291
GTAAGCAC	0.0204
TACAAGAA	0.144
CTAGTCAC	0.0572
CCGGGCTA	-0.366
CACAGGTG	-0.0389
CTGCCCAA	-0.169
GTTGACAA	0.00878
ATACGTGC	0.406
AACTACCC	-0.145
AAGGTAGA	0.0344
AGATTTAA	0.0862
CGTCCCAC	0.186
AATCGTAG	0.257
ACACGCGC	0.0966
CTAAGGCA	-0.0501
GAGTTGCA	-0.0549
CTCGAATA	0.0293
CCGCACAA	-0.203
AAAGAATT	0.138
